Assay results taken from PubChem BioAssay AID1645882 (National Center for Advancing Translational Sciences (NCATS), 2021).
About 120 (0.75%) of roughly 16,000 compounds were called active. Inconclusive results (about 4%) are left out. Calls come from the whole dose curve; as a rule, active = well fitted inhibition curve with a large enough effect; inconclusive = small, poorly fitted or top-dose-only effect; inactive = no such curve, though single readings can be large or run the other way. This is one part of the list.

These compounds were tested against Rap guanine nucleotide exchange factor 3 (Homo sapiens) (UniProt O95398) (assay: Validation qHTS for antagonist of cAMP-regulated guanine nucleotide exchange factor 3 (EPAC1)). Conditions: EPAC1 Rap1B-BODIPY-GDP exchange, fluorescence; activity change, negative = inhibition: at the top concentration.
Sequence of UniProt O95398 (O95398 whole entry, looked up): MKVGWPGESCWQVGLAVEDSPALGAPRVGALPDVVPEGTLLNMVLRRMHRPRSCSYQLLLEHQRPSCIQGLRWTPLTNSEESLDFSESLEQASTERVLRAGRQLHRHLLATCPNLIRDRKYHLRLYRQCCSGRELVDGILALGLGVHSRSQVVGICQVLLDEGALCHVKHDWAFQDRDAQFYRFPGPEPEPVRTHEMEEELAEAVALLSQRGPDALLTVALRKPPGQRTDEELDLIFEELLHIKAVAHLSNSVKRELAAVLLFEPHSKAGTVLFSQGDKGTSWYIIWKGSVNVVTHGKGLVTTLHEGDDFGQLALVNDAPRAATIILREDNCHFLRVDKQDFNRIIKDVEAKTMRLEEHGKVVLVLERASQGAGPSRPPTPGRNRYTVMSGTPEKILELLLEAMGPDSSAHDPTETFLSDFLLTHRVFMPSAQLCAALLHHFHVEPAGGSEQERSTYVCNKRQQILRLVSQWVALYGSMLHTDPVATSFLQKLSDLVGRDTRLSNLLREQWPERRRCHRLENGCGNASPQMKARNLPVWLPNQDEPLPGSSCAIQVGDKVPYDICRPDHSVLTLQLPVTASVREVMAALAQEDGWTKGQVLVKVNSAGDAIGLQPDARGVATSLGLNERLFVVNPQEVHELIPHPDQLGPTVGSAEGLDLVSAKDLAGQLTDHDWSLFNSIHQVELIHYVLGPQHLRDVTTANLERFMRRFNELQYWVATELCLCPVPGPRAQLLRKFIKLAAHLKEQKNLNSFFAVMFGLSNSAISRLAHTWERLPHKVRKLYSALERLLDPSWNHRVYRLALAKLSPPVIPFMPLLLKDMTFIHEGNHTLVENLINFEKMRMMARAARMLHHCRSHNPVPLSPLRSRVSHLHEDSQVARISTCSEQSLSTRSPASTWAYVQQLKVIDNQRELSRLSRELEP
Summary of the method: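 EPAC1 (100 nM) mixed with 250 nM RAP1B-BODIPY-GDP and 50 uM GDP; compounds in concentration series, 5 min at room temperature. Fluorescence (ex 480/em 540 nm) read every 5 min for 30 min; normalized to ATA control and DMSO.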
Note: nearly all actives have a fitted effect of over 75% in size.
Potency is the fitted concentration of half-maximal effect.
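Throughout, for activity change, negative = inhibition: plate controls were DMSO for no effect and ATA control for full effect.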

Compound	activity change, negative = inhibition	Potency
CCCC[N+]1(C)[C@@H]2CC(OC(=O)[C@H](CO)c3ccccc3)C[C@H]1[C@@H]1O[C@@H]12 (some centres not stated)	inactive: 9.1%	–
C=CCN(C1=NCCN1)c1c(Cl)cccc1Cl	inactive	–
CC[C@@]1(O)C(=O)OCc2c1cc1n(c2=O)Cc2cc3ccccc3nc2-1	inactive	–
CN(C)[C@@H]1C(=O)C(C(N)=O)=C(O)[C@@]2(O)C(=O)C3=C(O)c4c(O)ccc(Cl)c4[C@@](C)(O)[C@H]3C[C@@H]12	inactive: 22% [at 75.8 µM]	–
O=C(c1ccco1)N1CCC[C@@]2(CCN(Cc3ccncc3)C2)C1	inactive: 7.5%	–
CN1CCN(C(=O)O[C@@H]2c3nccnc3C(=O)N2c2ccc(Cl)cn2)CC1	inactive: 12%	–
CC[N+](CC)(CCCNC1=CC(=O)C(NCCC[N+](CC)(CC)Cc2ccccc2)=CC1=O)Cc1ccccc1	inactive	–
O=C1C[C@@H]2OCC=C3CN4CC[C@]56c7ccccc7N1[C@H]5[C@H]2[C@H]3C[C@H]46	inactive: 21.1%	–
O=C/C=C/c1ccccc1	inactive: 20.4%	–
CC(=O)OC1CN2CCC1CC2 (configuration not stated)	inactive: 0.989%	–
CC(C)CN1CCCC2(CCN(C(=O)Oc3ccccc3)CC2)C1	inactive: 8.06%	–
CC1CC[C@@]2(OC1)OC1C(O)C3C4CC[C@H]5CC(O[C@@H]6O[C@@H](CO)[C@H](OC7OC(CO)C(O)C(OC8OCC(O)C(O)[C@H]8O)[C@@H]7O[C@@H]7OC(CO)[C@H](O)[C@@H](O[C@@H]8OC(CO)C(O)C(O)C8O)C7O)C(O)C6O)C(O)C[C@]5(C)C4CC[C@]3(C)C1C2C (some centres not stated)	inactive: -0.236%	–
CCCOC(=O)Cc1ccc(OCC(=O)N(CC)CC)c(OC)c1	inactive: 26.8%	–
CC(CCc1ccccc1)NC(C)C(O)c1ccc(O)cc1 (configuration not stated)	inactive	–
OCCCBr	inactive: 101% [at 320 µM]	–
CCC(=O)O[C@]1(c2ccccc2)CCN(C)C[C@H]1C	inactive: 1.01%	–
Cc1o[nH]c(=O)c1C[C@@H](N)C(=O)O	inactive: 11.7%	–
NC(=NCCC[C@H](N)C(=O)O)N[N+](=O)[O-]	inactive	–
Cc1c(C(=O)c2cccc3ccccc23)c2cccc3c2n1[C@H](CN1CCOCC1)CO3	inactive	–
CCCN(C/C=C/I)C1CCc2ccc(O)cc2C1 (configuration not stated)	inactive: 1.56%	–
O=Cc1ccccc1	inactive	–
N=C(N)c1ccc(CS(=O)(=O)F)cc1	inactive: -0.822% [at 75.8 µM]	–
COP(=S)(OC)Oc1ccc([N+](=O)[O-])cc1	inactive: -18.7%	–
O=c1oc2ccccc2c(O)c1C(CC(O)c1ccc(-c2ccc(Br)cc2)cc1)c1ccccc1 (configuration not stated)	–	active: 100 µM
C=C(C)c1cc2cc(C(C)=O)c(O)cc2o1	inactive	–
CN1[C@H]2CC[C@@H]1[C@@H](C(=O)O)[C@@H](OC(=O)c1ccccc1)C2	inactive	–

Compound	activity change, negative = inhibition	Potency
CC(=O)O[C@@H]1C[C@@]2(C)C(c3ccoc3)C[C@H]3O[C@]32[C@]2(C)C(=O)C(O)=C3C(C)(C)C(=O)C=C[C@]3(C)C12 (some centres not stated)	inactive: -12%	–
Cc1cc(OC(=O)N2CCCCC2)c(C(C)C)cc1[N+](C)(C)C	inactive: -2.75%	–
CC(C)OC(=O)Nc1cccc(Cl)c1	inactive: 4.03%	–
c1ccc2nc(N3CCNCC3)ccc2c1	inactive	–
C=C[C@H]1CN2CCC1C[C@@H]2C(O)c1ccnc2ccccc12 (some centres not stated)	inactive: 4.58%	–
C[C@@H](N)C(=O)c1ccccc1	inactive: 19.2% [at 320 µM]	–
F/C(COc1ccc2c(c1)[nH]c1ccccc12)=C1/CN2CCC1CC2	inactive: 18.6%	–
O=C1NCN(c2ccccc2)C12CCN(CC1COc3ccccc3O1)CC2 (configuration not stated)	inactive	–
O=C(Oc1ccccc1)N1CCC2(CCN(Cc3ccncc3)CC2)CC1	inactive: 4.81%	–
COc1c2c(cc3c1OCO3)C13C=CC(OC)CC1N(C2)CC3O (configuration not stated)	inactive: -3.37%	–
ClC1=C(Cl)C2(Cl)C3C(Cl)C=CC3C1(Cl)C2(Cl)Cl (configuration not stated)	inactive: 10.3%	–
O=C1CC2OCC=C3CN4CC[C@]56c7ccccc7N1[C@H]5[C@H]2C3C[C@H]46 (some centres not stated)	inactive: 17.3%	–
O=c1cccc2n1CC1CNCC2C1 (configuration not stated)	inactive	–
Oc1ccc2c3c1O[C@H]1c4[nH]c5ccccc5c4C[C@@]4(O)C(C2)N(CC2CC2)CCC314 (some centres not stated)	inactive	–
Cc1ccc2c(c1)C1CN(C)CCC1N2 (configuration not stated)	inactive: 11.8%	–
CC(N)Cc1c[nH]c2ccc(OCc3cccs3)cc12 (configuration not stated)	inactive	–
C[C@@H]1C[C@@H](O)[C@@]2(O)[C@]13CC(=O)OC[C@]2(C)[C@@](C)(O)C(=O)C3	inactive: 14%	–
Oc1cccc[c]1[Hg][Cl]	inactive: 10.7%	–
O=C1C=C2C=C[C@@H]3C[C@@]2(O1)[C@H]1CCCCN31	inactive	–
CCC(=O)OC1(c2ccccc2)CCN(C)CC1	inactive: 0.342% [at 320 µM]	–
N#Cc1c(Cl)cccc1Cl	inactive: 7.03%	–
CN1CCC(c2c[nH]c3ccc(O)cc23)CC1	inactive	–
CC(C)[C@@]1(NC(=O)[C@@H]2C[C@@H]3c4cccc5[nH]cc(c45)C[C@H]3N(C)C2)O[C@@]2(O)[C@@H]3CCCN3C(=O)[C@H](Cc3ccccc3)N2C1=O	inactive	–
CC(C)[C@H](NC(=O)[C@H](CCC(=O)O)NC(=O)[C@H](Cc1ccccc1)NC(=O)[C@H](C)NC(=O)[C@@H](N)Cc1ccc(O)cc1)C(=O)N[C@H](C(=O)NCC(N)=O)C(C)C	inactive: 13.6% [at 15.3 µM]	–
CCN[C@@H](C)Cc1cccc(C(F)(F)F)c1	inactive: 27.5% [at 320 µM]	–
CCCCCCCCCCCCCCCCOC[C@H](COP(=O)([O-])OCC[N+](C)(C)C)OC(C)=O	inactive: 13.2% [at 15.3 µM]	–
